Assay results reported in publication PMC9911399, “Two distinct binding modes provide the RNA-binding protein RbFox with extraordinary sequence specificity”.
Numbering of substitutions follows the chain as printed; changes in the protein carry UniProt numbers. Some of the results follow.

T1: RBFOX1 RRM (Homo sapiens, UniProt Q9NWB1 109-208)
T1 sequence: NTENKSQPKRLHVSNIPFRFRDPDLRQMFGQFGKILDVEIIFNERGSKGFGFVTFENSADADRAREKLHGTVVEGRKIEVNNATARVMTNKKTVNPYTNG

B1: GAUAUAC (DNA:RNA)
RNA: GGGAGACCGGAAUUCAGAUUGUCCGAUAUACUUAAAUCCCGUCGUAGCCACCA
DNA 1: CAATCTGAATTCCGGTCTCCC
DNA 2: TGGTGGCTACGACGGGATT
B2: AGCGUGG (DNA:RNA)
RNA: B1 RNA with G25A, A26G, U27C, A28G, A30G, C31G
DNA 1: CAATCTGAATTCCGGTCTCCC
DNA 2: TGGTGGCTACGACGGGATT
B3: GCAAAUU (DNA:RNA)
RNA: B1 RNA with A26C, U27A, U29A, A30U, C31U
DNA 1: CAATCTGAATTCCGGTCTCCC
DNA 2: TGGTGGCTACGACGGGATT
B4: UUAGUCU (DNA:RNA)
RNA: B1 RNA with G25U, A26U, U27A, A28G, A30C, C31U
DNA 1: CAATCTGAATTCCGGTCTCCC
DNA 2: TGGTGGCTACGACGGGATT
B5: GCUGCCU (DNA:RNA)
RNA: B1 RNA with A26C, A28G, U29C, A30C, C31U
DNA 1: CAATCTGAATTCCGGTCTCCC
DNA 2: TGGTGGCTACGACGGGATT
B6: CACUCGC (DNA:RNA)
RNA: B1 RNA with G25C, U27C, A28U, U29C, A30G
DNA 1: CAATCTGAATTCCGGTCTCCC
DNA 2: TGGTGGCTACGACGGGATT
B7: GAGCCAA (DNA:RNA)
RNA: B1 RNA with U27G, A28C, U29C, C31A
DNA 1: CAATCTGAATTCCGGTCTCCC
DNA 2: TGGTGGCTACGACGGGATT
B8: GGGGGGC (DNA:RNA)
RNA: B1 RNA with A26G, U27G, A28G, U29G, A30G
DNA 1: CAATCTGAATTCCGGTCTCCC
DNA 2: TGGTGGCTACGACGGGATT
B9: ACGAUCU (DNA:RNA)
RNA: B1 RNA with G25A, A26C, U27G, A30C, C31U
DNA 1: CAATCTGAATTCCGGTCTCCC
DNA 2: TGGTGGCTACGACGGGATT
B10: UUAACCA (DNA:RNA)
RNA: B1 RNA with G25U, A26U, U27A, U29C, A30C, C31A
DNA 1: CAATCTGAATTCCGGTCTCCC
DNA 2: TGGTGGCTACGACGGGATT
B11: AUAACGA (DNA:RNA)
RNA: B1 RNA with G25A, A26U, U27A, U29C, A30G, C31A
DNA 1: CAATCTGAATTCCGGTCTCCC
DNA 2: TGGTGGCTACGACGGGATT
B12: GCUGCCC (DNA:RNA)
RNA: B1 RNA with A26C, A28G, U29C, A30C
DNA 1: CAATCTGAATTCCGGTCTCCC
DNA 2: TGGTGGCTACGACGGGATT
B13: CUGAUCG (DNA:RNA)
RNA: B1 RNA with G25C, A26U, U27G, A30C, C31G
DNA 1: CAATCTGAATTCCGGTCTCCC
DNA 2: TGGTGGCTACGACGGGATT
B14: CGCCGCG (DNA:RNA)
RNA: GGGAGACCGGAAUUCAGAUUGUCCCGCCGCGUUAAAUCCCGUCGUAGCCACCA
DNA 1: CAATCTGAATTCCGGTCTCCC
DNA 2: TGGTGGCTACGACGGGATT
B15: CUUAGCU (DNA:RNA)
RNA: B14 RNA with G26U, C27U, C28A, G31U
DNA 1: CAATCTGAATTCCGGTCTCCC
DNA 2: TGGTGGCTACGACGGGATT
B16: CUACAUG (DNA:RNA)
RNA: B14 RNA with G26U, C27A, G29A, C30U
DNA 1: CAATCTGAATTCCGGTCTCCC
DNA 2: TGGTGGCTACGACGGGATT
B17: AAGAGGC (DNA:RNA)
RNA: B1 RNA with G25A, U27G, U29G, A30G
DNA 1: CAATCTGAATTCCGGTCTCCC
DNA 2: TGGTGGCTACGACGGGATT
B18: AUGUCAU (DNA:RNA)
RNA: B1 RNA with G25A, A26U, U27G, A28U, U29C, C31U
DNA 1: CAATCTGAATTCCGGTCTCCC
DNA 2: TGGTGGCTACGACGGGATT
B19: CUAAGGA (DNA:RNA)
RNA: B14 RNA with G26U, C27A, C28A, C30G, G31A
DNA 1: CAATCTGAATTCCGGTCTCCC
DNA 2: TGGTGGCTACGACGGGATT
B20: UUGAAAG (DNA:RNA)
RNA: B1 RNA with G25U, A26U, U27G, U29A, C31G
DNA 1: CAATCTGAATTCCGGTCTCCC
DNA 2: TGGTGGCTACGACGGGATT
B21: UUUAGCG (DNA:RNA)
RNA: B14 RNA with C25U, G26U, C27U, C28A
DNA 1: CAATCTGAATTCCGGTCTCCC
DNA 2: TGGTGGCTACGACGGGATT
B22: AGGGCAG (DNA:RNA)
RNA: B14 RNA with C25A, C27G, C28G, G29C, C30A
DNA 1: CAATCTGAATTCCGGTCTCCC
DNA 2: TGGTGGCTACGACGGGATT
B23: CUGAAGA (DNA:RNA)
RNA: B14 RNA with G26U, C27G, C28A, G29A, C30G, G31A
DNA 1: CAATCTGAATTCCGGTCTCCC
DNA 2: TGGTGGCTACGACGGGATT
B24: CCAUCGA (DNA:RNA)
RNA: B14 RNA with G26C, C27A, C28U, G29C, C30G, G31A
DNA 1: CAATCTGAATTCCGGTCTCCC
DNA 2: TGGTGGCTACGACGGGATT
B25: AGCGCUA (DNA:RNA)
RNA: B14 RNA with C25A, C28G, G29C, C30U, G31A
DNA 1: CAATCTGAATTCCGGTCTCCC
DNA 2: TGGTGGCTACGACGGGATT
B26: UUGAGCU (DNA:RNA)
RNA: B14 RNA with C25U, G26U, C27G, C28A, G31U
DNA 1: CAATCTGAATTCCGGTCTCCC
DNA 2: TGGTGGCTACGACGGGATT
B27: CGGCGGA (DNA:RNA)
RNA: B14 RNA with C27G, C30G, G31A
DNA 1: CAATCTGAATTCCGGTCTCCC
DNA 2: TGGTGGCTACGACGGGATT
B28: AAAAUAG (DNA:RNA)
RNA: B1 RNA with G25A, U27A, C31G
DNA 1: CAATCTGAATTCCGGTCTCCC
DNA 2: TGGTGGCTACGACGGGATT
B29: UUCCCAU (DNA:RNA)
RNA: B14 RNA with C25U, G26U, G29C, C30A, G31U
DNA 1: CAATCTGAATTCCGGTCTCCC
DNA 2: TGGTGGCTACGACGGGATT
B30: UUGUUAC (DNA:RNA)
RNA: B1 RNA with G25U, A26U, U27G, A28U
DNA 1: CAATCTGAATTCCGGTCTCCC
DNA 2: TGGTGGCTACGACGGGATT
B31: AAUAGCA (DNA:RNA)
RNA: B1 RNA with G25A, U29G, A30C, C31A
DNA 1: CAATCTGAATTCCGGTCTCCC
DNA 2: TGGTGGCTACGACGGGATT

target: T1, RBFOX1 RRM; experiment: EMSA; HiTS-Eq, 1 nM pool, 10 min; buffer printed only for the single-RNA assays: 10 mM Tris pH 7.5, 150 mM NaCl, 3.4 mM EDTA, 0.001% NP-40, 30 C; conditions: tags: His6 N-terminal (pET28a); label: 5' 32P
In short: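 Purified RbFox RRM (wild type or mutant) was equilibrated for 10 min in 50 µL with 1 nM of a 5′-radiolabelled pool of RNA with 7 randomized nucleotides, its flanks annealed to DNA oligonucleotides, across increasing protein concentrations. Free RNA was separated by 8% native PAGE, excised, reverse-transcribed, PCR-barcoded and sequenced on an Illumina HiSeq 2500. Relative association constants came from read-count changes of each variant against the control reaction, normalised to the cognate motif.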

Binder | binding signal
B1 | 0.00528 KA relative to UGCAUGU
B2 | 0.0172 KA relative to UGCAUGU
B3 | 0.00237 KA relative to UGCAUGU
B4 | 0.0121 KA relative to UGCAUGU
B5 | 0.017 KA relative to UGCAUGU
B6 | 0.00439 KA relative to UGCAUGU
B7 | 0.00488 KA relative to UGCAUGU
B8 | 0.0272 KA relative to UGCAUGU
B9 | 0.00593 KA relative to UGCAUGU
B10 | 0.00177 KA relative to UGCAUGU
B11 | 0.00354 KA relative to UGCAUGU
B12 | 0.0161 KA relative to UGCAUGU
B13 | 0.0247 KA relative to UGCAUGU
B14 | 0.00911 KA relative to UGCAUGU
B15 | 0.00703 KA relative to UGCAUGU
B16 | 0.0115 KA relative to UGCAUGU

Binder | binding signal
B17 | 0.00534 KA relative to UGCAUGU
B18 | 0.00445 KA relative to UGCAUGU
B19 | 0.00343 KA relative to UGCAUGU
B20 | 0.0171 KA relative to UGCAUGU
B21 | 0.0118 KA relative to UGCAUGU
B22 | 0.0242 KA relative to UGCAUGU
B23 | 0.0172 KA relative to UGCAUGU
B24 | 0.00548 KA relative to UGCAUGU
B25 | 0.00499 KA relative to UGCAUGU
B26 | 0.0194 KA relative to UGCAUGU
B27 | 0.0227 KA relative to UGCAUGU
B28 | 0.00136 KA relative to UGCAUGU
B29 | 0.00778 KA relative to UGCAUGU
B30 | 0.0172 KA relative to UGCAUGU
B31 | 0.00868 KA relative to UGCAUGU
